# Reference: PubChem BioAssay AID1347165 (National Center for Advancing Translational Sciences (NCATS), 2019)
# Among all 220,000 compounds or so, about 5,700 (2.6%) were called active. The shares of active, inactive and inconclusive entries below differ from those in the screen. Calls come from the whole dose curve; as a rule, active = well fitted inhibition curve with a large enough effect; inconclusive = small, poorly fitted or top-dose-only effect; inactive = no such curve, though single readings can be large or run the other way. Where the call is inconclusive, the potency comes from a doubtful curve fit.
# Target: Lysine-specific demethylase 5B (Homo sapiens) (UniProt Q9UGL1)
# Assay: Primary screen for KDM5B Histone Demethylases FDH-coupled qHTS; note: nearly all actives have a fitted effect of over 70% in size; for activity change, negative = inhibition: 0% is about no effect
# Settings: FDH-coupled NADH fluorescence (FDH is formaldehyde dehydrogenase); activity change, negative = inhibition: at 57.7 µM (top of the series) unless noted
# From the text: Assay Submitter (PI): Qin Yan, Ph.D. (Yale University) and Xiaodong Cheng, Ph.D. (MD Anderson) This project was funded as part of the NCI NEXT Program and Chemical Biology Consortium (CBC) The histone demethylases, KDM5A and KDM5B catalyze the demethylation of lysine 4 on histone H3 (H3K4me3/2). They are overexpressed in a variety of cancers and have been implicated in cancer cell growth, metastasis, drug resistance, and tumor growth. KDM5A is amplified and overexpressed in breast and gastric cancer; and is translocated in leukemia. While KDM5B is highly expressed in human mammary tumors and breast cancer cell lines, but not in normal adult breast tissue. Moreover, knockdown of KDM5B leads to upregulation of tumor suppressor genes, including BRCA1. The goal of this project is to employ qHTS to identify selective small molecule inhibitors of KDM5A/B demethylase activity to better understand the role of KDM5 in cancer and to develop novel therapies. We employed an FDH-coupled assay previously reported by Sakurai et al. to monitor in vitro KDM5 demethylase activity. Compounds showing dose response inhibition are re-acquired, validated, and tested for non-specific interference with the formaldehyde dehydrogenase (FDH) counterscreen. True inhibitors are validated using an AlphaLisa secondary screen, which employs an H3K4(me2-1)-specific antibody to monitor demethylation of a biotin-tagged H3K4(me3) peptide substrate. Inhibitors are profiled against KDM4A and KDM6A AlphaLisa counterscreens to determine level of demethylase specificity; and against the TruHits counterscreen to eliminate non-specific inhibitory activity on the AlphaLISA detection method. Selective inhibitors identified from the primary and secondary screening are tested in cells using immunofluorescence to monitor global H3K4 tri-methylation as a measure of KDM5A/B inhibition. Early Translation Branch (ETB) National Center for Advancing Translational Sciences (NCATS), Rockville, MD National Institute of Health (NIH), Bethesda, Maryland [1] Sakurai, M et al. A miniaturized screen for inhibitors of Jumonji histone demethylases. Mol Biosyst. 2010 Feb;6(2):357-64. doi: 10.1039/b912993f. Epub 2009 Oct 8.
# Materials: 1536-well Black, solid bottom, medium binding assay plate is purchased from Greiner Bio-one. The enzymes (KDM5B) and substrate (H3K4me3/2) are provided by the principal investigators. The buffer for this assay is composed of 50mM HEPES at pH 7.5 with 0.01% Tween-20. FDH coupled Demethylase qHTS protocol: Three microliter enzyme mix (buffer + 200nM KDM5BDeltaAP final concentration) is dispensed into the assay plate using the BioRAPTR Flying Reagent Dispenser (FRD; […]). Compound (at various final concentration) and control solution is pin transferred to the assay plate using the Kalypsys 1536-pin tool apparatus. The assay plate is incubated for 10 min at room temperature followed by addition of 1uL substrate mix (buffer + 100uM ascorbic acid, 50uM ferrous ammonium sulfate, 12.5uM H3K4Me3, 25uM a-ketoglutarate, 0.25 mM NAD+, 0.25 U/mL formaldehyde dehydrogenase using the FRD yielding a total reaction volume of 4 uL. Initial fluorescence (Read1) is detected using the PerkinElmer ViewLux plate reader equipped with 340 nm excitation and 450 nm emission filters. The final fluorescence (Read2) signal is obtained after 30 min of room temperature incubation. Delta RFU is calculated (Read2 - Read1) and is used to generated dose response curves.
# Potency is the fitted concentration of half-maximal effect; tags give direction and shape of the fitted curve.
# Sequence of UniProt Q9UGL1 (Q9UGL1 whole entry, looked up): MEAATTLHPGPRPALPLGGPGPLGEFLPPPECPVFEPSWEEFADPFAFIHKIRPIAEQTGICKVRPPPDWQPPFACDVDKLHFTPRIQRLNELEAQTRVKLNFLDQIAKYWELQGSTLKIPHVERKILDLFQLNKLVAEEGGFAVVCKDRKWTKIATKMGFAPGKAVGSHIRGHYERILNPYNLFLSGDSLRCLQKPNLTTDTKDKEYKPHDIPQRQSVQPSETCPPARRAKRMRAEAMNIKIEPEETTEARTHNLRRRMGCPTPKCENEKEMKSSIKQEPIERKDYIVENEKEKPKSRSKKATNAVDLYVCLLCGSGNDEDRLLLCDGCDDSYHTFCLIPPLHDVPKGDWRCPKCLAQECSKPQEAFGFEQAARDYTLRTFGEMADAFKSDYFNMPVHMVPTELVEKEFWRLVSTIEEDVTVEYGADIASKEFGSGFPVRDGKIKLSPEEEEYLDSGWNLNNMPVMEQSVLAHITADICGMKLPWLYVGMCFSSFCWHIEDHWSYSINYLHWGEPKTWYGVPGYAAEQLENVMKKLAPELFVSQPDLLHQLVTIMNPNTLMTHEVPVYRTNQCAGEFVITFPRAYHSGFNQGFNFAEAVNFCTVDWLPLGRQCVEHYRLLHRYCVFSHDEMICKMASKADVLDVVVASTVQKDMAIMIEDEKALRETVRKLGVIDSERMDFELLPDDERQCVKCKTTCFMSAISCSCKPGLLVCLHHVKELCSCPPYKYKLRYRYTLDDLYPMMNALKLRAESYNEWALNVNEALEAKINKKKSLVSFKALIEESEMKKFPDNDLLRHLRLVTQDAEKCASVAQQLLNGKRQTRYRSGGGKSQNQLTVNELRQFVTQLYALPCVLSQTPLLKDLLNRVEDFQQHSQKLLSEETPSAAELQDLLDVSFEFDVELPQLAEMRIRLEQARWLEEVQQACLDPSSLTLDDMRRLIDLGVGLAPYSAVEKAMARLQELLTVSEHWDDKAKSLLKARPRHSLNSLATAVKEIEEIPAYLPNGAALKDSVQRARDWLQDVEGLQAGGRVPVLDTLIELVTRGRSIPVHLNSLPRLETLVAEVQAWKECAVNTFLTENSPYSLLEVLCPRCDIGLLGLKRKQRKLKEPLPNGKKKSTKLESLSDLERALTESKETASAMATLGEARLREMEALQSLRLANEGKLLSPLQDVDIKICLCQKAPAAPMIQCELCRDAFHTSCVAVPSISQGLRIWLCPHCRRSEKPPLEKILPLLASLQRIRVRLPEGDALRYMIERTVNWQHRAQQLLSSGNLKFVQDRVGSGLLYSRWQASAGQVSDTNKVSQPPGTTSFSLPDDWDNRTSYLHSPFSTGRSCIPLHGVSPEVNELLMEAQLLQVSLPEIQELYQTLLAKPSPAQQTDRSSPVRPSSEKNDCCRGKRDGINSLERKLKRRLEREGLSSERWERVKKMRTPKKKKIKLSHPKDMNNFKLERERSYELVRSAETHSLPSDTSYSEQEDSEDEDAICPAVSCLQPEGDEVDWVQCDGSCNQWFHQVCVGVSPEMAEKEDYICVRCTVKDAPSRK
Compound,"activity change, negative = inhibition",Potency
COc1ccc(S(=O)(=O)N2CCc3ccccc32)cc1C(=O)N1CCN(c2ncccn2)CC1,inactive: 2.43%,–
Cc1sc(-c2ccco2)nc1C(=O)NC(c1ccccc1)c1nccn1C (stereo not given),–,"inconclusive: 35.5 µM [inhibitor, partial curve, poor fit]"
COc1ccc2c(C)c(CCC(=O)N3CCCC3)c(=O)oc2c1,inactive: 1490%,–
C#CC1(O)CCC2C3CCC4=CC(=O)CCC4C3CCC21C (stereo not given),inactive: 19.4%,–
CSc1ccc(S(=O)(=O)NCC(=O)OCC(=O)N(C)CC(=O)Nc2ccc(F)cc2)cc1[N+](=O)[O-],–,"inconclusive: 10 µM [inhibitor, partial curve, poor fit]"
CCNC(=O)N1CCc2c(c(-c3nncn3-c3ccccc3)nn2C)C1,inactive: -13.4%,–
Cc1ccccc1C1C2=C(CC(C)(C)CC2=O)OC2=C1C(=O)CC(C)(C)C2,inactive: 17.5%,–
O=C(CCn1c(-c2ccccc2)cc2ccccc21)N1CCN(CCO)CC1,–,"inconclusive: 22.4 µM [inhibitor, partial curve, poor fit]"
COc1cc2c(cc1OC)C(C[C@H]1CN(S(=O)(=O)c3ccc(F)cc3)CC[C@H]1CC(=O)O)=NCC2,inactive: -6780%,–
CCC(=O)N1CCC2(CC1)CC(N1CCCC1)CCO2 (stereo not given),–,"inconclusive: 7.94 µM [inhibitor, partial curve, poor fit]"
O=C(CCc1ccc(F)c(F)c1)N1CC=C(c2c[nH]c3ncccc23)CC1,–,"inconclusive: 28.2 µM [inhibitor, single point]"
Cc1ccc(-c2ccc3nnc(CNC(=O)Cc4ccc(Cl)cc4)n3n2)cc1,–,"inconclusive: 28.2 µM [inhibitor, partial curve, poor fit]"
O=C1CN(C(=O)Cn2c(-c3ccccc3)cc3ccccc32)CCN1,–,"inconclusive: 31.6 µM [inhibitor, partial curve, poor fit]"
Cc1ccc(/C=C(\C#N)C(=O)Nc2cccc(C)n2)cc1,–,"inconclusive: 28.2 µM [inhibitor, partial curve, poor fit]"
CC(OC(=O)c1cc(C2CC2)nn1-c1ccccc1)C(=O)Nc1ccc(C#N)cc1 (stereo not given),inactive: -7.31%,–
CN(C)C[C@@H]1CN(c2ncccn2)C[C@H]1NC(=O)CCn1cccn1,–,active: 28.2 µM
COc1ccc(CCNC(=O)Cn2ccn3nc(-c4ccccc4)c(CO)c3c2=O)cc1OC,–,"inconclusive: 28.2 µM [inhibitor, partial curve, poor fit]"
CCCCCCS(=O)(=O)CCO,inactive: -14.5%,–
O=c1cc(N2CCOCC2)oc2c(-c3ccccc3F)nccc12,–,"inconclusive: 39.8 µM [inhibitor, partial curve, poor fit]"
O=C(c1ccc2c(c1)N(Cc1ccccc1F)C(=O)c1ccccc1S2(=O)=O)N1CCCCC1,inactive: -11.4%,–
O=C(c1cccnc1)N1CCC2(CCCN(Cc3cccc(F)c3F)C2=O)C1 (stereo not given),inactive: -3.1%,–
CC(NC(=O)c1ccc(-c2ccc(F)cc2)o1)C12CC3CC(CC(C3)C1)C2 (stereo not given),–,"inconclusive: 39.8 µM [inhibitor, single point]"
CCOCCCNC(=O)NC(C)c1c(-n2cccc2)sc2c1CCN(CC)C2 (stereo not given),–,"inconclusive: 14.1 µM [inhibitor, partial curve, poor fit]"

Compound,"activity change, negative = inhibition",Potency
COc1cccc(NC(=O)CSC2=Nc3ccccc3C3=NC(CC(=O)NCCc4ccccc4)C(=O)N23)c1 (stereo not given),–,"inconclusive: 28.2 µM [inhibitor, partial curve, poor fit]"
CCCc1ccc(C(=O)/C(C#N)=C\c2cn[nH]c2C(C)(C)C)cc1,inactive: -18.7%,–
Cc1cccc(NC(=O)N2CCc3c(C(=O)NC(C)(C)C)cccc32)c1,inactive: 7.33%,–
COc1ccccc1N1CCN(C(=O)Cn2ncc3c([nH]c4ccccc43)c2=O)CC1,inactive: -8.85%,–
CCc1ccc(-c2noc(CSc3nnc(C4COc5ccccc5O4)o3)n2)cc1 (stereo not given),inactive: -1.49%,–
CCn1cc(CN2CC(Oc3ccc(-c4noc(-c5ccncc5)n4)cc3)C2)cn1,inactive: -18.7%,–
O=C(c1ccc2ncsc2c1)N(Cc1ccccc1)Cc1ccco1,–,"inconclusive: 28.2 µM [inhibitor, partial curve, poor fit]"
CCC(=O)N1CCc2c(C(=O)NCc3cccc(OC)c3OC)cccc21,inactive: -14.3%,–
Cc1ccc(CNC(=O)Cc2ccsc2)cc1,inactive: 21.1%,–
CN(C)C(=O)CCC[C@@H]1[C@H]2CCCN3CCC[C@@H](CN1C)[C@@H]23,inactive: -9.48%,–
Nc1cccc(-c2cc3ccccn3c2)c1,–,"inconclusive: 10 µM [inhibitor, partial curve, poor fit]"
Cc1nnn2c(C(=O)NC3CC3)cccc12,–,active: 35.5 µM
Cc1ccc(CSC2=NS(=O)(=O)c3ccccc3N2Cc2ccccc2)cc1,–,"inconclusive: 35.5 µM [inhibitor, single point]"
CCCCSc1nc2c(c(=O)n(C)c(=O)n2C)n1Cc1ccc(Cl)cc1,inactive: -1.44%,–
CC(C)c1ccc(CC(=O)N2CCCc3ncc(C(=O)Nc4cccc(Cl)c4)cc32)cc1,–,active: 28.2 µM
COc1cc(-c2nc3nc[nH]n3c2Nc2ccc(C(C)C)cc2)ccc1O,–,"inconclusive: 7.94 µM [inhibitor, partial curve, poor fit]"
CCOc1ccccc1CN1CCC2(CCN(C(=O)C3CC3)CC2)Oc2ccccc21,–,"inconclusive: 11.2 µM [inhibitor, partial curve]"
C[C@@H](NS(C)(=O)=O)c1onc(-c2ccc(F)cc2)c1C(=O)O,–,"inconclusive: 31.6 µM [inhibitor, single point]"
Cc1cccc(-n2ncc3c(Nc4ccc(Oc5ccc(Cl)cc5)cc4)ncnc32)c1,–,"inconclusive: 31.6 µM [inhibitor, partial curve, poor fit]"
O=C(c1ccc2c(c1)C1(CCN(CC3CC3)C1)CN2Cc1ccccc1)N1CCOCC1 (stereo not given),–,"inconclusive: 39.8 µM [inhibitor, partial curve, poor fit]"
Cc1ccc(C)n1-c1c(C(=O)NCCC(C)C)sc2ncccc12,–,"inconclusive: 17.8 µM [inhibitor, partial curve, poor fit]"
COc1ccc(-c2cc(N3CCCC(NC(=O)c4ccc5ncccc5c4)C3)n[nH]2)cc1 (stereo not given),–,"inconclusive: 11.2 µM [inhibitor, partial curve, poor fit]"
